Data from PubChem BioAssay (NCI).
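96-well plates; 48 h exposure; 5 concentrations. Endpoints by linear interpolation between flanking doses. Not reached: highest tested concentration assigned. The concentration for full growth arrest is given as TGI.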 For part of its entries the source gives two or more results. Only these are listed. An entry can have further records. Records of one sample usually come from different ranges of test concentrations, not given here; some values may only mark the edge of a range.

Experiments:
Experiment in all cases: NCI tumour cell line growth inhibition, 48 h
P388 leukemia = tested on: P388 leukemia
RXF 393 renal = tested on: RXF 393 renal
DMS 273 small cell lung = tested on: DMS 273 small cell lung
LOX IMVI melanoma = tested on: LOX IMVI melanoma
NCI-H460 lung = tested on: NCI-H460 lung
UACC-62 melanoma = tested on: UACC-62 melanoma
HOP-62 NSCLC = tested on: HOP-62 NSCLC
EKVX NSCLC = tested on: EKVX NSCLC
CCRF-CEM leukemia = tested on: CCRF-CEM leukemia

| Structure (SMILES) | TGI (P388 leukemia) | TGI (RXF 393 renal) | TGI (DMS 273 small cell lung) | TGI (LOX IMVI melanoma) | TGI (NCI-H460 lung) | TGI (UACC-62 melanoma) | TGI (HOP-62 NSCLC) | TGI (EKVX NSCLC) | TGI (CCRF-CEM leukemia) |
| --- | --- | --- | --- | --- | --- | --- | --- | --- | --- |
| CCN(CC)c1ccc2cc(C(=O)Nc3ccc4[nH]c(C(=O)N5C[C@@H](CCl)c6c5cc(OC(=O)Nc5ccccc5)c5[nH]cc(C)c65)cc4c3)oc2c1 | 0.368 nM and 587 µM | 0.389 nM and 367 µM | 0.283 nM and 527 µM | 0.363 nM and > 1 mM | 0.281 nM and 274 µM | 0.233 nM and 240 µM | 0.715 nM and 426 µM | 0.688 nM and > 1 mM |  |
| NC(=O)c1csc(C2OC(CO)C(O)C2O)n1 (centres undefined) |  |  |  |  |  |  |  |  | 96.9 µM and 4.52 mM |
